In the supplement of paper PMC8007513:
Structures can show the parent of a compound that is named as a salt. ± gives the standard error. About 130 (10%) of roughly 1,300 compounds showed an effect of 50% or more. The entries are a selection whose mix differs from that of the whole data set.

Tested on: Trichoderma virens ATCC 9645
Test: growth yield (OD600) with compound + IPBC relative to untreated control; higher = less growth inhibition
Details: compound concentration: 100 uM, IPBC concentration: 200 ng/ml
In short: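 A biocide at 200 ng ml^−1 was co-applied to some wells, and library compounds were present in all test wells at 100 μM final. The wells held 100 μl of Trichoderma virens ATCC 9645 spores at 15,000 spores ml^−1 in potato dextrose broth, grown at 30 °C in 96-well plates, with OD600 read at 40 h and 72 h. Results are relative growth against the control without either agent, averaged across duplicate screens.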

## C=CC(N)CCC(=O)O (centres undefined) [Vigabatrin hydrochloride] + CCCCNC(=O)OCC#CI [3-iodo-2-propynyl butylcarbamate (IPBC)]
40 h
  growth yield: 94.7 ± 11%
72 h
  growth yield: 96 ± 6%

## CC(=O)OCC(=O)[C@@]1(O)CC[C@H]2[C@@H]3CCC4=CC(=O)CC[C@]4(C)[C@H]3[C@@H](O)C[C@@]21C [Cortisol acetate] + CCCCNC(=O)OCC#CI [3-iodo-2-propynyl butylcarbamate (IPBC)]
40 h
  growth yield: 92.6 ± 2.7%
72 h
  growth yield: 95.9 ± 1.7%

## Cc1ncc(C[n+]2csc(CCO)c2C)c(N)n1 [Thiamine hydrochloride] + CCCCNC(=O)OCC#CI [3-iodo-2-propynyl butylcarbamate (IPBC)]
40 h
  growth yield: 90.1 ± 2.4%
72 h
  growth yield: 89.7 ± 2.4%

## CCN[C@H]1CN(CCCOC)S(=O)(=O)c2sc(S(N)(=O)=O)cc21 [Brinzolamide] + CCCCNC(=O)OCC#CI [3-iodo-2-propynyl butylcarbamate (IPBC)]
40 h
  growth yield: 76.1 ± 0.79%
72 h
  growth yield: 86.31 ± 0.32%

## Cc1ccc(C(=O)c2ccc(CC(=O)O)n2C)cc1 [Tolmetin sodium salt dihydrate] + CCCCNC(=O)OCC#CI [3-iodo-2-propynyl butylcarbamate (IPBC)]
40 h
  growth yield: 77.8 ± 4.8%
72 h
  growth yield: 83.9 ± 2.3%

## CC[N+](C)(CC)CCOC(=O)C1c2ccccc2Oc2ccccc21 [Methantheline bromide] + CCCCNC(=O)OCC#CI [3-iodo-2-propynyl butylcarbamate (IPBC)]
40 h
  growth yield: 82 ± 1.9%
72 h
  growth yield: 88.5 ± 2.1%

## CC(=O)OCC(=O)[C@@]1(O)CC[C@H]2[C@@H]3CCC4=CC(=O)CC[C@]4(C)[C@@]3(F)[C@@H](O)C[C@@]21C [Fludrocortisone acetate] + CCCCNC(=O)OCC#CI [3-iodo-2-propynyl butylcarbamate (IPBC)]
40 h
  growth yield: 93.4 ± 5.1%
72 h
  growth yield: 98.5 ± 4.7%

## NC(=O)CN1CCCC1=O [Piracetam] + CCCCNC(=O)OCC#CI [3-iodo-2-propynyl butylcarbamate (IPBC)]
40 h
  growth yield: 85.5 ± 4.8%
72 h
  growth yield: 90.2 ± 3.4%

## Cc1cn[nH]c1 [Fomepizole] + CCCCNC(=O)OCC#CI [3-iodo-2-propynyl butylcarbamate (IPBC)]
40 h
  growth yield: 82.92 ± 0.32%
72 h
  growth yield: 87.57 ± 0.52%

## NCCc1c[nH]cn1 [Histamine dihydrochloride] + CCCCNC(=O)OCC#CI [3-iodo-2-propynyl butylcarbamate (IPBC)]
40 h
  growth yield: 83.71 ± 0.48%
72 h
  growth yield: 87.4 ± 0.94%

## OC(Cn1cncn1)(Cn1cncn1)c1ccc(F)cc1F [Fluconazole] + CCCCNC(=O)OCC#CI [3-iodo-2-propynyl butylcarbamate (IPBC)]
40 h
  growth yield: 57.7 ± 5.9%
72 h
  growth yield: 75.2 ± 8.5%

## CC[N+](C)(C)c1cccc(O)c1 [Edrophonium chloride] + CCCCNC(=O)OCC#CI [3-iodo-2-propynyl butylcarbamate (IPBC)]
40 h
  growth yield: 101.2 ± 0.79%
72 h
  growth yield: 108 ± 2.2%
